In PubChem BioAssay AID1814 (Broad Institute, 2009):
Out of some 300,000 compounds screened, about 22,000 (7.3%) were called active. Inconclusive means that the source gave no clear call. Such entries were picked first, then a sample of the others. Rule as the data show it: active = activity score below about -60%; inconclusive = mostly about -28% to -61%; inactive = positive scores.

assay: Activators via SNCA 5'UTR binding, MLPCN (AID 1814); settings: alpha-synuclein 5'UTR reporter, activators screen; hits give low values; tested at 7.5 µM

Activity score, inconclusive:
COc1cc(OC)c(C2=NOC(C(=O)NCc3cccnc3)C2)cc1Cl (stereo not given) -56.1%
O=C(CSc1nnc(NC(=O)c2ccccc2F)s1)Nc1ccccc1F -36.4%
O=C(/C=C(\O)c1ccccc1)C(=O)NNC(=O)c1ccccc1[N+](=O)[O-] -58.5%
O=C(CSc1ncnc2c1oc1ccccc12)NCc1ccco1 -49.9%
COc1ccc(OCc2cc(C(=O)NC(C)Cc3ccccn3)no2)c(Cl)c1 (stereo not given) -55.1%
CCOC(=O)N1CCN(Cc2nc(-c3cccs3)no2)CC1 -57.6%
CN(Cc1nc(-c2cccs2)no1)CC1COCCO1 (stereo not given) -61.1%
COc1cc(NC(=S)NC2CC2)c(OC)cc1Cl -39.7%
O=C(NCCCO)c1ccc2[nH]c3c(c2c1)CCCC3 -55.8%
CC1CCN(CCCNC(=O)c2cc3c(Cl)nc4ccccc4c3s2)CC1 -53.5%
CCOC(=O)CC(=O)CSc1nnc2c(n1)[nH]c1ccccc12 -59.2%
CCOC(=O)c1cc2c(=O)n3cccc(C)c3nc2n(CC(C)C)c1=NC(=O)c1ccco1 -48.9%
Cc1ccccc1Cn1ccc(NC(=O)c2onc(C)c2Cl)n1 -54.9%
CCC(=O)Nc1cccc(-c2cc3ccccc3oc2=O)c1 -58.2%
Cc1ccc(NC(=O)c2cnccn2)c(C)c1 -58.4%
Cc1nc2ccc(F)cc2cc1C(=O)NCC1CCCO1 (stereo not given) -23.1%
CCOC(=O)c1[nH]c(C)c(C(=O)NCCC2=CCCCC2)c1C -60.5%
CCOC(=O)N1CCN(C(=O)CSc2nc3c(c(=O)n2-c2ccccc2OC)SCC3)CC1 -35.3%
Cc1noc(C)c1COc1ccccc1C(=O)N(C)CC(=O)Nc1cccc(F)c1 -60.9%
CC(=O)c1cccc(NC(=O)c2ccc(C)o2)c1 -59.6%
Cc1cccc(-n2nnc3c(=O)n(Cc4ccccn4)cnc32)c1 -53.4%
CCc1cc[n+](-c2nc3ccccc3nc2C(=C=[N-])C#N)cc1 -39.7%
COc1ccc(CNC(=O)Cn2nnc(-c3ccc(NC(=O)C4CCCCC4)cc3)n2)cc1 -47%
CCCn1nnc(NC(=O)c2ccc(Br)o2)n1 -55.8%
CCOC(=O)c1cnc2c(-c3ccccc3)cnn2c1N -53.8%
O=C1CC(c2ccc(F)cc2)Cc2nc(N3CCN(c4ccccc4)CC3)ncc21 (stereo not given) -29%
CC(C)(C)C1CCc2sc(C(=O)NNC(=O)CCl)cc2C1 (stereo not given) -52.2%
O=C(/C=C/c1ccco1)NC(=S)N1CCCCC1 -43%
Cc1ccc(-c2noc(-c3ccccc3F)n2)cc1 -42.5%
O=c1n(Cc2ccccc2)nc2n1-c1ccccc1SC2 -51.6%
COc1ccc(N2CC(C)Cn3c2nc2c3c(=O)n(CCc3ccccc3)c(=O)n2C)cc1 (stereo not given) -52.8%
C/C(=N\NC(=O)c1cccc(F)c1)c1ccc(Br)s1 -45%
Cc1nc2cc(NC(=O)NCc3ccco3)ccc2n1C -60.3%
COc1cc2c(cc1NC(=O)CSc1cccc[n+]1[O-])oc1ccccc12 -57.2%
Cc1ccc(/C=N/NC(=O)Cc2ccc(O)cc2)s1 -33.8%
CCC(C)(C)NC(=O)C(c1ccc(F)cc1)N(Cc1ccc(OC)cc1)C(=O)c1cnccn1 (stereo not given) -49.3%
O=C(CSc1nc2ccccc2o1)N/N=C/c1ccccc1 -61.5%
COc1ccc(-c2cnc(N)n2CC2CCCO2)cc1 (stereo not given) -59.7%
O=C(Nc1ncc(Cc2cccc(C(F)(F)F)c2)s1)C1CCCO1 (stereo not given) -50.6%
CC1CCCN(CCCNC(=O)c2ccc(NC(=O)C3=CSCCO3)cc2)C1 (stereo not given) -58.7%
COc1ccccc1C(=O)Nc1ccc(S(=O)(=O)N(C)c2ccccc2)cc1 -55.9%
O=C(CCCOc1ccc(Cl)cc1Cl)NCCc1ccccn1 -59.3%
Cc1csc(NC(=O)c2ccccc2)n1 -56.7%
COCCN1CCc2c(C)nc3c(-c4ccc(OC)c(OC)c4)cnn3c21 -60.3%
C/C(N)=C(/C#N)C(=O)COc1ccc(Cl)cc1Cl -58.5%
CCc1ccc(C(=O)NNc2ccc(Cl)cc2)cc1 -58.8%
O=C(COc1ccccc1)Nc1cccc(-c2ccc(N3CCOCC3)nn2)c1 -61.4%
O=C(Nc1ccccc1)c1ccc(-n2cnnn2)cc1 -47.9%
CC(C)n1cc(/C=N/Nc2ccc(Cl)c(C(=O)O)c2)c2ccccc21 -60.2%
CCOC(=O)C1(Cc2ccccc2)CCCN(C(=O)c2cn[nH]c2)C1 (stereo not given) -43.6%
Cc1ccc(N2CCN(CCc3nc4cc(NC(=O)c5ccco5)ccc4n3C)CC2)cc1 -57.2%
Cc1cc(C)nc(NC2=NC3CCCCC3N2)n1 (stereo not given) -60.8%
CN(C)CCCNc1ncnc2c1cnn2-c1ccccc1 -53.7%
O=C(Nc1ccc(F)cc1)C1CCCN(c2cnccn2)C1 (stereo not given) -55%
COc1cccc(NC(=O)c2sc(Cl)nc2C)c1 -60.2%
COc1ccc(CNC(=O)COC(=O)/C=C/c2ccc(S(=O)(=O)N3CCOCC3)cc2)cc1 -35.7%
CC(/C=C/c1ccco1)=N\NC(=O)c1cccc(Cl)c1 -51.8%

Activity score, inactive:
COc1ccc(NC(=O)C(=O)NCC(c2ccco2)N2CCc3ccccc32)cc1 (stereo not given) 84.9%
Cc1ccc(-c2nc3cc(C)ccc3o2)cc1 72.5%
CCOc1ccc2c(c1)C(C)=CC(C)(C)N2S(=O)(=O)c1ccc(C)cc1 103%
[N-]=[N+]=CC(=O)C(O)(c1ccccc1)C(Cl)c1ccccc1 (stereo not given) 47%
CN(C)c1ccc(CCc2ccc(N)cc2)cc1 84.1%
CCCC(=O)NC(c1ccccc1Cl)c1ccc2cccnc2c1O (stereo not given) 68.3%
O=C(N/N=C/c1ccc([N+](=O)[O-])o1)c1cc(-c2ccc(-c3ccccc3)cc2)nc2ccccc12 76.1%
c1ccc(-c2ccc(-c3nc(-c4ccccn4)no3)cc2)cc1 147%
CN(/N=C/c1cc(Br)cc(Br)c1O)c1cccc(C(F)(F)F)n1 70.2%
CCCCCCCCC[n+]1cccc2c3ccccc3ccc21 69.2%
Cc1cc(C(=O)N/N=C\c2cc(C(C)(C)C)ccc2O)n[nH]1 74.7%
COc1ccc2c3c1O[C@H]1C[C@@H](O)C=C[C@@]31CCN(C)C2 62%
CCCOC(c1ccccc1)(c1ccc(C(F)(F)F)cc1)C(Oc1nc(C)cc(C)n1)C(=O)O (stereo not given) 61.3%
CSc1ccc(COC(=O)c2cc([N+](=O)[O-])ccc2N2CCOCC2)cc1 66.9%
COc1ccccc1Cn1nnc2c(=O)[nH]c(C3CCN(C(=O)c4ccccc4Cl)CC3)nc21 60.3%
COc1cc(-c2cc3nc4ccccc4n3c(N)c2C#N)cc(OC)c1OC 45.4%
Cc1cc2nc(-c3ccc[nH]c3=O)[nH]c2cc1C 76.5%
CCC(C)Nc1nc(N)c([N+](=O)[O-])c(Nc2ccccc2OC)n1 (stereo not given) 60%
COc1cc(C(=O)Oc2ccccc2/C=N/NC(=O)c2ccc(C)c(Cl)c2)cc(OC)c1OC 84.3%
COc1ccc(/C=C2\SC(=S)N(CCCC(=O)N3CCOCC3)C2=O)cc1 55.8%
CC(=O)Nc1ccc(Nc2c3c4c(cccc4n(C)c2=O)C(=O)c2ccccc2-3)cc1 59.2%

Activity score, active:
CCC1CCCCN1CCCNC(=O)c1ccc2nc(N3CCC(C)CC3)sc2c1 (stereo not given) -292%
Cc1cc(C)cc(NC(=O)c2sc3nc(C)cc(C)c3c2N)c1 -136%
Nc1cc2ccncc2c2ccccc12 -71%
CCc1ccc(NC(=O)c2ccccc2Br)cc1 -144%
O=C(NC(=S)Nc1ccc(F)cc1)C1CCCCC1 -62.5%
CCCOc1ccc(-c2nc(N)n[nH]2)cc1 -93.7%
Nc1c(C(=O)C2CC2)sc2nc3c(cc12)CCC3 -161%
Cc1cc(C)c2nc(N3CCN(C(=O)c4ccco4)CC3)sc2c1 -115%
Cc1ccc(C(=O)NC2=NCCS2)cc1Cl -110%
CCOc1ccc(NC(=O)Nc2nnc(CC)s2)cc1 -105%
COc1ccc(-c2cc(C(=O)NCc3cccnc3)no2)cc1 -117%
O=c1oc2ccccc2cc1-c1ccccc1 -118%
Cc1ccc(-c2nc3cccnc3s2)cc1NS(C)(=O)=O -186%
C=C(C)c1cccc(C(C)(C)NC(=O)Nc2ccc(C)cn2)c1 -90.9%
CC(=O)c1cccc(NC(=S)NC(=O)c2ccccc2C)c1 -63.6%
CSc1ccccc1C(=O)Nc1ccc2c(c1)OCCO2 -64.8%
Cc1ccc(NC(=O)COc2ccccc2C(=O)Nc2ccccc2)cc1Cl -82%
